Data published in PubChem BioAssay AID1508624 (National Center for Advancing Translational Sciences (NCATS), 2021).
The campaign covered roughly 48,000 compounds. About 120 (0.25%) were called active. Roughly 4% stayed inconclusive and do not appear here. Calls come from the whole dose curve; as a rule, active = well fitted activation curve with a large enough effect; inconclusive = small, poorly fitted or top-dose-only effect, or another doubt; inactive = no such curve, though single readings can be large or run the other way. Some of the results follow.

Assay: Primary qHTS for Identification of Small Molecule Activators of Huntingtin-Antisense Promoter Activity; note: nearly all actives have a fitted effect of over 55% in size
Settings: HEK293 HTT-AS promoter firefly luciferase reporter, 24 h; series mostly up to 57.5 µM; activity change, positive = activation: at the top concentration
How it was run: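 Luminescence was read after Dual-Glo reagent and a 10 min room-temperature incubation. Values were normalized to vehicle (0% activity) and zero RLU (-100% activity). Reporter HEK293 cells had been exposed to compounds (up to 57.5 uM final) for 24 h.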

Activity change, positive = activation, inactive:
CCc1ccc(OCC(=O)N(Cc2ccc(Cl)cc2)C2CCS(=O)(=O)C2)cc1 (configuration not stated) -25.8%
CCOC(=O)c1oc2c(c1C)-c1nn(Cc3ccc(Cl)cc3)cc1CC2 -37.8%
Cc1noc(C)c1S(=O)(=O)N1CCC(C(=O)N2CCN(c3ccccc3)CC2)CC1 -22.8%
COc1ccccc1NC(=O)Cn1nnc(C(=O)NCc2ccc3c(c2)OCO3)c1N -29.6%
CCC(C)NC(=O)Cn1c(=O)cc(-c2ccccc2)c2c(C)nn(C)c21 (configuration not stated) -17.7%
Cn1c(NCCO)nc2c1c(=O)n(Cc1ccccc1Cl)c(=O)n2C 10.5%
Cc1ccc(N2CC(c3nc4ccccc4n3CCC3CCCCC3)CC2=O)cc1 (configuration not stated) -5.76%
CCOc1ccc(C(CC(=O)O)N2Cc3ccccc3C2=O)cc1OC (configuration not stated) 1.5%
COc1ccc(C2c3c(oc4ccc(F)cc4c3=O)C(=O)N2Cc2ccc3c(c2)OCO3)cc1 (configuration not stated) -11%
N#C/C(=C\c1ccccc1)c1nc(-c2cc3cc(Br)ccc3oc2=O)cs1 5.62%
Cc1cccc(N(C)C(=O)c2cc(S(=O)(=O)N3CCCC3)cn2C)c1 -10.7%
CCc1ccc(CNCc2c(C(=O)O)n(Cc3cccc(F)c3)c3cc(OC)ccc23)cc1 -44.4%
COC(=O)c1ccccc1NC(=O)NCCc1c(C)nn(C)c1C -1.99%
COc1cccc(N2CCN(S(=O)(=O)c3ccc4[nH]c5c(c4c3)CCCC5)CC2)c1 -30.5%
O=C(Nc1ccccc1Br)C1CCCN(S(=O)(=O)c2cccc3nsnc23)C1 (configuration not stated) -18%
CCOC(=O)c1cccc(Nc2c3c(nc4ccccc24)CCC3)c1 -39.1%
O=C1CC(c2ccccc2)Cc2[nH]c(=O)c(C(=O)Nc3cccc(F)c3)cc21 (configuration not stated) -25.7%
O=C(NCCS(=O)(=O)N1CCN(c2ccccc2)CC1)C(c1ccccc1)c1ccccc1 -25.3%
CCc1ccccc1N(C)C(=O)Cn1cnc2sc(C)c(S(=O)(=O)N3CCN(c4ncccn4)CC3)c2c1=O -11.1%
COc1ccc(NC(=O)Cn2c(=O)oc3cc(S(=O)(=O)N4CCC(C)CC4)ccc32)c(OC)c1 -91.4%
CCCS(=O)(=O)c1c(Nc2ccccc2C)sc(C(=O)c2ccccc2)c1N -38.5%
Cc1ccc(NS(=O)(=O)c2cc(Br)cc3c2N(C(=O)C2CC2)CC3)cc1C -61.8%
CCOc1ccccc1CNC(=O)CCn1ccc2cc(S(=O)(=O)N3CCC(C)CC3)ccc21 -14.6%
O=C(CCCN1C(=O)C(c2ccccc2)Oc2cccnc21)Nc1ccc(Br)cc1F (configuration not stated) -18.9%
COc1ccc2c(CNCCc3cccs3)c(C(=O)O)n(Cc3ccccc3)c2c1 -20.1%
COc1ccc(-c2nc(SCC(=O)NCCc3ccc(OC)c(OC)c3)n[nH]2)cc1 -12.6%
CCOc1ccc(CCNC(=O)c2cc3c(=O)[nH]c4ccc(C)cc4c3s2)cc1OCC -15.1%
Cc1ccc(Cl)cc1NC(=O)C1CCC(CNS(=O)(=O)c2cccc3nsnc23)CC1 (configuration not stated) -3.62%
CC(=O)N(Cc1cccnc1)c1nc2c(C)c(C)ccc2s1 -8.93%
O=Cc1ccc(O)c(O)c1O -1.97%
Cc1nnc(C(=O)NC(C)(C)c2nc(C(=O)NCc3ccc(F)cc3)c(O)c(=O)n2C)o1
COc1cccc(Oc2nc3c(c(=O)n(Cc4ccccc4F)c(=O)n3C)n2C)c1 29.2% [at 11.5 µM, percent change from vehicle, -100% = no light]
COc1cc2[nH]c(=O)n(CCCCCC(=O)N3CCN(c4cccc(C(F)(F)F)c4)CC3)c(=O)c2cc1OC -24.7%
COc1cccc(N2CCN(C(=O)c3c(C)oc4ncnc(N5CCOCC5)c34)CC2)c1 -6.57%
Cc1c(C(=O)N(C)C)sc2c1c(=O)n(-c1ccc(Cl)c(Cl)c1)c(=O)n2CC(=O)Nc1cccc(C(F)(F)F)c1 -1.82%
CC(C)c1ccc(NC(=O)CN(C)S(=O)(=O)c2ccc3c(c2)c(=O)n(C)c(=O)n3C)cc1 -23.2%
CCn1c(=O)n(CC)c2cc(N3CCCCC3)c(NC(=O)Nc3ccccc3Cl)cc21 -25.5%
CCOC(=O)Cc1ccc(NC(=O)NCc2ccc3c(c2)CCN3C(=O)CC)cc1 -20%
O=C(CCS(=O)(=O)c1cc(Br)cc2c1N(C(=O)C1CC1)CC2)Nc1ccc(Br)cc1F -11.1%
COc1ccc(Cc2nc3ccccc3[nH]c2=O)cc1 -21.2%
C=Cc1ccc(Cn2c(C)c(CNCc3cccc(Br)c3)c(C(=O)O)c2C)cc1 -12.4%
C[C@@H]1C[C@H]2[C@@H]3C[C@H](F)C4=CC(=O)C=C[C@]4(C)[C@@]3(F)[C@@H](O)C[C@]2(C)[C@@]1(O)C(=O)CO 2.3%
Cc1cccc(Cn2c(CNS(=O)(=O)c3ccc4c(c3)CCCC4)nc3cccnc32)c1 -25.3%
CCOC(=O)c1c(S(=O)(=O)N2CCCC(C(=O)NCc3ccc(Cl)cc3)C2)c(C)n(C)c1C (configuration not stated) 0%
COc1ccc(F)cc1S(=O)(=O)NCCc1csc2nc(-c3cccc(C)c3)nn12 -12.8%
O=C(c1ccccc1Cl)N1c2ncnn2C2(CCCCC2)[C@@H]2CCCC[C@@H]21 -32.8%
COC(=O)c1ccc(OCC2c3cc(OC)c(OC)cc3CCN2C(=O)COc2ccc(Cl)cc2)cc1 (configuration not stated) 0.789%
Cc1ccc2oc3c(c(=O)c2c1)C(c1ccc(F)cc1)N(Cc1ccc2c(c1)OCO2)C3=O (configuration not stated) -5.69%
CC(=O)c1cccc(NC(=O)c2sc(-n3nc(C)c(Cc4ccc5c(c4)OCO5)c3C)nc2C)c1 -28.3%
COc1ccccc1CCNC(=O)C(=O)NCC(c1ccc2c(c1)OCO2)N1CCOCC1 (configuration not stated) -20.2%
CCOc1ccc(-c2cccc(NS(=O)(=O)c3c(C)cc(C)cc3C)c2)nn1 -22.1%
COc1ccccc1OCC(=O)NCC(c1ccc(Cl)cc1)N1CCCCC1 (configuration not stated) -13.8%
CCN(C(=O)C1CCN(S(=O)(=O)c2ccc3c(c2)CCCN3C(C)=O)CC1)c1cccc(C)c1 -21.3%
COc1cccc(CNC(=O)C(=O)Nc2c3c(nn2-c2ccccc2)CSC3)c1 -22.6%
Cc1c(Cl)cccc1NC(=O)Cn1c(CCC(=O)O)ccc1-c1cccs1 -66.9%
CCOC(=O)c1c(NC(C)=O)c2c3c(sc2n1Cc1nc(-c2cccc(Cl)c2)oc1C)CCCC3 -3.8%
COc1ccc(OC)c(-c2nnc3n(Cc4ccc(C)cc4)c(=O)c4ccccc4n23)c1 -15.2%
